This is one part of the list. Most values come without repeats; read them as rough.
What was measured:
Test in all cases: cell count relative to DMSO control; melanoma cells; higher = more viable cells
Conditions in all cases: library dose: low library concentration; 72 h
MZ2-MEL = test system: MZ2-MEL
MeWo = test system: MeWo
RPMI7951 = test system: RPMI7951
RVH-421 = test system: RVH-421
SkMel28 = test system: SkMel28
SkMel2 = test system: SkMel2
SkMel30 = test system: SkMel30
SkMel5 = test system: SkMel5
UACC257 = test system: UACC257
UACC62 = test system: UACC62
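Note: cell number obtained by counting DAPI-stained nuclei in high-throughput microscope images with image analysis software, screen run in 1,536-well plates.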

Structure (SMILES) | cell count (MZ2-MEL) | cell count (MeWo) | cell count (RPMI7951) | cell count (RVH-421) | cell count (SkMel28) | cell count (SkMel2) | cell count (SkMel30) | cell count (SkMel5) | cell count (UACC257) | cell count (UACC62)
COc1cc([C@@H]2c3cc4c(cc3[C@@H](O[C@@H]3O[C@@H]5CO[C@@H](C)O[C@H]5[C@H](O)[C@H]3O)[C@H]3COC(=O)[C@H]23)OCO4)cc(OC)c1O [etoposide] + CCc1ccc(CCOc2ccc(CC3SC(=O)NC3=O)cc2)nc1 [pioglitazone] (first compound 0.02 µM, partner dose 2 µM) | 94.5% | 101% | 99.4% | 102% | 97.6% | 102% | 87.4% | 111% | 105% | 79.7%
COc1cc([C@@H]2c3cc4c(cc3[C@@H](O[C@@H]3O[C@@H]5CO[C@@H](C)O[C@H]5[C@H](O)[C@H]3O)[C@H]3COC(=O)[C@H]23)OCO4)cc(OC)c1O [etoposide] + CO[C@@H]1[C@H](N(C)C(=O)c2ccccc2)C[C@H]2O[C@]1(C)n1c3ccccc3c3c4c(c5c6ccccc6n2c5c31)C(=O)NC4 [Midostaurin] (first compound 0.02 µM, partner dose 0.08 µM) | 86.9% | 82.4% | 90.6% | 83.7% | 104% | 84.2% | 130% | 79.9% | 85.9% | 96.3%
COc1cc([C@@H]2c3cc4c(cc3[C@@H](O[C@@H]3O[C@@H]5CO[C@@H](C)O[C@H]5[C@H](O)[C@H]3O)[C@H]3COC(=O)[C@H]23)OCO4)cc(OC)c1O [etoposide] + Cc1nc(Nc2ncc(C(=O)Nc3c(C)cccc3Cl)s2)cc(N2CCN(CCO)CC2)n1 [dasatanib] (first compound 0.02 µM, partner dose 0.004 µM) | 68.5% | 98% | 54.6% | 66.9% | 88.8% | 92.7% | 76.8% | – | – | 69.5%
C[C@]1(O)C[C@@H](c2nc(-c3ccc4ccc(-c5ccccc5)nc4c3)c3c(N)nccn32)C1 + O=C(Nc1cccc(Cl)c1)Nc1ncc(CCNc2ncnc3ccsc23)s1 [SNS314] (first compound 0.4 µM, partner dose 0.0008 µM) | 98.6% | 96.8% | 103% | 114% | 86% | 81.7% | 101% | 76% | 80.6% | 75.7%
CCN(CC)CCNC(=O)c1c(C)[nH]c(/C=C2\C(=O)Nc3ccc(F)cc32)c1C [sunitinib] + COc1cc2ncnc(Nc3ccc(Oc4ccccc4)cc3)c2cc1OC [SrcI1] (first compound 0.4 µM, partner dose 2 µM) | 103% | 76% | 106% | 99.8% | 96.5% | 123% | 89.5% | 96% | 103% | 101%
COc1cc([C@@H]2c3cc4c(cc3[C@@H](O[C@@H]3O[C@@H]5CO[C@@H](C)O[C@H]5[C@H](O)[C@H]3O)[C@H]3COC(=O)[C@H]23)OCO4)cc(OC)c1O [etoposide] + Cc1cc(N2CCOCC2)cc2[nH]c(-c3c(NC[C@@H](O)c4cccc(Cl)c4)cc[nH]c3=O)nc12 [BMS536924] (first compound 0.02 µM, partner dose 0.2 µM) | 83.3% | 81.1% | 91.1% | 76.8% | 76.4% | 82.6% | 81% | 93.8% | 85.2% | 79.3%
COc1cc([C@@H]2c3cc4c(cc3[C@@H](O[C@@H]3O[C@@H]5CO[C@@H](C)O[C@H]5[C@H](O)[C@H]3O)[C@H]3COC(=O)[C@H]23)OCO4)cc(OC)c1O [etoposide] + OCCn1cc(-c2cnc3nnn(Cc4ccc5ncccc5c4)c3n2)cn1 [PF04217903] (first compound 0.02 µM, partner dose 1 µM) | 91.5% | 93.6% | 95.8% | 89.3% | 88.2% | 100% | 98.2% | 95.6% | 102% | 83.7%
Cn1cnc2c(F)c(Nc3ccc(Br)cc3Cl)c(C(=O)NOCCO)cc21 [selumetinib] + O=c1cc(-c2cccc3c2Sc2ccccc2S3)oc(N2CCOCC2)c1 [KU55933] (first compound 0.015 µM, partner dose 1 µM) | 84.3% | 96.4% | 96.6% | 64.8% | 91.3% | 75.9% | 52.8% | 136% | 113% | 78.9%
COc1cc([C@@H]2c3cc4c(cc3[C@@H](O[C@@H]3O[C@@H]5CO[C@@H](C)O[C@H]5[C@H](O)[C@H]3O)[C@H]3COC(=O)[C@H]23)OCO4)cc(OC)c1O [etoposide] + CC1(C)NC(=O)N(c2ccc([N+](=O)[O-])c(C(F)(F)F)c2)C1=O [nilutamide] (first compound 0.02 µM, partner dose 1 µM) | 86.8% | 93.1% | 107% | 106% | 91.3% | 100% | 112% | 83.1% | 85.8% | 74.3%
COc1cc([C@@H]2c3cc4c(cc3[C@@H](O[C@@H]3O[C@@H]5CO[C@@H](C)O[C@H]5[C@H](O)[C@H]3O)[C@H]3COC(=O)[C@H]23)OCO4)cc(OC)c1O [etoposide] + CC1(C)CCC(c2ccc(Cl)cc2)=C(CN2CCN(c3ccc(C(=O)NS(=O)(=O)c4ccc(N[C@H](CCN5CCOCC5)CSc5ccccc5)c(S(=O)(=O)C(F)(F)F)c4)cc3)CC2)C1 [ABT263] (first compound 0.02 µM, partner dose 0.4 µM) | 88.8% | 62.1% | 60.1% | 63.6% | 93.4% | 74.9% | 70.9% | – | – | 93.3%
Cn1cnc2c(F)c(Nc3ccc(Br)cc3Cl)c(C(=O)NOCCO)cc21 [selumetinib] + C[C@@H]1CCN(C(=O)CC#N)C[C@@H]1N(C)c1ncnc2[nH]ccc12 [CP690550] (first compound 0.015 µM, partner dose 1 µM) | 84.5% | 99.2% | 97.9% | 80.5% | 81.9% | 90% | 77% | 112% | 89.6% | 65.6%
Cn1cnc2c(F)c(Nc3ccc(Br)cc3Cl)c(C(=O)NOCCO)cc21 [selumetinib] + COC(=O)c1sccc1S(=O)(=O)Nc1ccc(Nc2ccccc2)cc1OC [GSK0660] (first compound 0.015 µM, partner dose 1 µM) | 86.3% | 102% | 122% | 81% | 87.7% | 73.7% | 45.4% | 111% | 82.3% | 61.4%
Cn1cnc2c(F)c(Nc3ccc(Br)cc3Cl)c(C(=O)NOCCO)cc21 [selumetinib] + Nc1nc(F)nc2c1ncn2[C@@H]1O[C@H](CO)[C@@H](O)[C@@H]1O [fludarabine] (first compound 0.015 µM, partner dose 0.2 µM) | 90.2% | 43.1% | 99% | 104% | 67.5% | 2.79% | 16.4% | – | – | 74.6%
C[C@]1(O)C[C@@H](c2nc(-c3ccc4ccc(-c5ccccc5)nc4c3)c3c(N)nccn32)C1 + O=C1NC(=O)/C(=C/c2ccc(-c3ccc(F)cc3O)o2)S1 [AS252424] (first compound 0.4 µM, partner dose 1 µM) | 95.5% | 91.3% | 110% | 113% | 88.2% | 81.5% | 87.6% | 111% | 89.4% | 90.2%
Cn1cnc2c(F)c(Nc3ccc(Br)cc3Cl)c(C(=O)NOCCO)cc21 [selumetinib] + O=C(CCCCCCC(=O)Nc1ccccc1)NO [vorinostat] (first compound 0.015 µM, partner dose 0.08 µM) | 97.8% | 96.7% | 109% | 102% | 95.5% | 82.5% | 79.1% | 123% | 73.7% | 76.5%
C[C@]1(O)C[C@@H](c2nc(-c3ccc4ccc(-c5ccccc5)nc4c3)c3c(N)nccn32)C1 + O=C(CCCCCCC(=O)Nc1ccccc1)NO [vorinostat] (first compound 0.4 µM, partner dose 0.08 µM) | 98.8% | 93.8% | 100% | 101% | 63.1% | 90.2% | 91.9% | 68.9% | 65.9% | 73.7%
COc1cc([C@@H]2c3cc4c(cc3[C@@H](O[C@@H]3O[C@@H]5CO[C@@H](C)O[C@H]5[C@H](O)[C@H]3O)[C@H]3COC(=O)[C@H]23)OCO4)cc(OC)c1O [etoposide] + Oc1nc(-c2ccc(C(F)(F)F)cc2)nc2c1CSCC2 [XAV939] (first compound 0.02 µM, partner dose 2 µM) | 94.1% | 93.4% | 91.3% | 91% | 90.8% | 89.6% | 99.5% | 93.6% | 92.4% | 80.2%
COc1cc([C@@H]2c3cc4c(cc3[C@@H](O[C@@H]3O[C@@H]5CO[C@@H](C)O[C@H]5[C@H](O)[C@H]3O)[C@H]3COC(=O)[C@H]23)OCO4)cc(OC)c1O [etoposide] + CS(=O)(=O)CCNCc1ccc(-c2ccc3ncnc(Nc4ccc(OCc5cccc(F)c5)c(Cl)c4)c3c2)o1 [lapatinib] (first compound 0.02 µM, partner dose 0.8 µM) | 91.6% | 91.5% | 88.2% | 89% | 80.4% | 94.8% | 92.5% | – | – | 74.5%
